The other results are listed elsewhere or left out. At the low end of the ranking the order means little.
Target: T1, GST-Rok-C97-191 (UniProt O34857)
T1 sequence: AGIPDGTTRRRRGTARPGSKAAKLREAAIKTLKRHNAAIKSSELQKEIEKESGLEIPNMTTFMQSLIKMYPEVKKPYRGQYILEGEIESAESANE
Test: protein binding microarray;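 note: rank score from −0.5 (least bound) to 0.5 (best bound)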
Conditions: Rok is a gene silencer of Bacillus subtilis; high values mean tight binding; most listed sequences are background and not binding sites; double strand, one strand shown

| Sequence | binding signal |
| --- | --- |
| GATAATAC | 0.21 E-score |
| GCGTCCCC | -0.279 E-score |
| AGAGATGC | 0.0333 E-score |
| CCGCTGTC | -0.299 E-score |
| TGGTTCAA | -0.0707 E-score |
| GATACACC | 0.0831 E-score |
| GCAAGAAA | 0.0878 E-score |
| CCTGGCAC | -0.187 E-score |
| ACTGTTGG | 0.0362 E-score |
| CTATTCGA | 0.195 E-score |
| GAGTGGGC | -0.154 E-score |
| GCGCGCCA | -0.271 E-score |
| ATAATGGC | 0.135 E-score |
| CGCGGGAG | -0.107 E-score |
| CCGCCGAC | -0.185 E-score |
| GGGATGAA | 0.238 E-score |
| ACAACCCC | -0.207 E-score |
| CAATCAGG | 0.0702 E-score |
| ACCCAGTG | -0.0503 E-score |
| CGAAGCCC | -0.324 E-score |
| ATTAATCA | 0.117 E-score |
| AGAGGAAG | 0.0787 E-score |
| CTTCGCCC | -0.236 E-score |
| CATAGCGG | -0.134 E-score |
| CCGTAATA | 0.288 E-score |

| Sequence | binding signal |
| --- | --- |
| AGGCCAGG | -0.349 E-score |
| AAAGCGTC | -0.227 E-score |
| GAGGGGCC | -0.361 E-score |
| GGTAGTTA | 0.4 E-score |
| GCTGGACA | -0.106 E-score |
| GTCCCCAA | -0.141 E-score |
| ACCGCATG | -0.238 E-score |
| AGGTTGAA | -0.194 E-score |
| CCGCCGGA | -0.149 E-score |
| AGAGCTGG | -0.0865 E-score |
| CCTCGAGG | -0.328 E-score |
| GGAGTGCA | -0.188 E-score |
| AATATGCC | 0.0302 E-score |
| CGATCAAG | -0.0651 E-score |
| CATCTGGG | -0.161 E-score |
| GCCCAGTA | -0.0203 E-score |
| GCAGATGC | -0.143 E-score |
| AGTTATGC | 0.181 E-score |
| CATAGGAA | 0.23 E-score |
| CACACGCA | -0.0664 E-score |
| ACGGCTTA | -0.144 E-score |
| CTGAGTCA | -0.156 E-score |
| AGCTTCAT | -0.0213 E-score |
| ATTCGAGC | -0.0851 E-score |
| TCTAGAAA | 0.205 E-score |

| Sequence | binding signal |
| --- | --- |
| CCCCAAAG | -0.232 E-score |
| ATCGAAAC | 0.0725 E-score |
| GATCGGAA | -0.00676 E-score |
| GGTGCTAC | 0.0695 E-score |
| CCGCAGCA | -0.182 E-score |
| AGACATAC | -0.000506 E-score |
| ACCCCTCG | -0.0886 E-score |
| TCTCTTAA | -0.00713 E-score |
| CAGCGGCG | -0.248 E-score |
| CTCGTTAA | -0.085 E-score |
| GGGGCCGA | -0.294 E-score |
| ATGTGTTA | 0.0836 E-score |
| CCTTAGAG | -0.374 E-score |
| CGTAGTTA | 0.199 E-score |
| ATCTGTCG | -0.0608 E-score |
| CGGTAGCC | -0.199 E-score |
| TTATTGAA | -0.0933 E-score |
| GTGTGATA | -0.0282 E-score |
| TACAAACA | 0.304 E-score |
| CCAGGTCG | -0.156 E-score |
| CAAGGGTA | -0.105 E-score |
| AGACTCTA | 0.092 E-score |
| CAGCAAGA | 0.159 E-score |
| AGCGAAAG | -0.141 E-score |
| ATACGCAT | -0.0703 E-score |

| Sequence | binding signal |
| --- | --- |
| ACTTGACG | -0.134 E-score |
| AAAAGGTG | -0.0845 E-score |
| GGGAATAC | 0.143 E-score |
| GCATCGGA | -0.0812 E-score |
| CGGGCTCC | -0.292 E-score |
| GCGTGTCC | -0.0889 E-score |
| CCTTGCCG | -0.199 E-score |
| GCTTGACC | -0.252 E-score |
| TCCCGGAA | -0.143 E-score |
| AAGCATAA | 0.0741 E-score |
| GCAGCAGA | -0.091 E-score |
| CCAATGCC | -0.224 E-score |
| AACTGGGG | -0.231 E-score |
| GCATGGAC | -0.00639 E-score |
| AAATCTAC | 0.441 E-score |
| TGTAAACA | 0.079 E-score |
| ATAATGAG | 0.217 E-score |
| CGAAACGA | -0.0558 E-score |
| GTGTGACA | -0.0947 E-score |
| CCTGACGC | -0.212 E-score |
| AATTTGTG | 0.138 E-score |
| TGATGCCA | -0.299 E-score |
| ACTGTAAT | 0.258 E-score |
| GGAATCAC | -0.0168 E-score |
| AGAGACTG | 0.0621 E-score |

| Sequence | binding signal |
| --- | --- |
| ACCCGGAA | 0.0679 E-score |
| CTAGCAAG | 0.221 E-score |
| AAATCCCC | -0.178 E-score |
| CTGGCGCC | -0.249 E-score |
| TCCGACGA | -0.0595 E-score |
| ATTGAATG | 0.052 E-score |
| CGGGATAC | -0.0205 E-score |
| CCGTTGGC | -0.314 E-score |
| GCGGAGTA | -0.217 E-score |
| AGCTCTTA | 0.106 E-score |
| AGAAGATC | 0.0464 E-score |
| GGTATCAA | 0.122 E-score |
| CAAAGTGC | -0.0301 E-score |
| ACCATGTG | -0.125 E-score |
| CCAATTGC | 0.1 E-score |
| ACTGAGGC | -0.204 E-score |
| ATAACCAG | -0.00227 E-score |
| GAACATGC | 0.00746 E-score |
| CGCTCTTA | -0.0173 E-score |
| CCCCCTGC | -0.394 E-score |
| ATGCGCAA | 0.00657 E-score |
| CGAGAGGA | -0.153 E-score |
| TGCATGAA | 0.0171 E-score |
| AAGACGAG | -0.185 E-score |
| TCCCGCAA | -0.212 E-score |

| Sequence | binding signal |
| --- | --- |
| GTATTCTA | 0.232 E-score |
| CGTTGCTA | 0.21 E-score |
| CAGCTCAA | 0.0893 E-score |
| TAACCCCA | -0.153 E-score |
| ATGTGCAC | -0.0271 E-score |
| GTGCCTAA | -0.216 E-score |
| AAACTGCG | -0.095 E-score |
| AGTCAGCA | -0.0559 E-score |
| ATTATCTA | 0.385 E-score |
| GAAGTTGA | 0.00777 E-score |
| ACCTCAAC | -0.118 E-score |
| AGAGCGAA | -0.138 E-score |
| ATTTTTAG | 0.209 E-score |
| CCCATATC | -0.0677 E-score |
| ATGAGTAA | -0.0104 E-score |
| CCGACGTC | -0.153 E-score |
| ATGACAGA | -0.112 E-score |
| AGTAACCC | -0.223 E-score |
| CCTTGTCA | -0.206 E-score |
| CAATGGCA | -0.0671 E-score |
| ATATTAAA | 0.385 E-score |
| CGCGTAGC | -0.159 E-score |
| ATTTGCGG | 0.0151 E-score |
| CCCCCACC | -0.384 E-score |
| AGTTAAAT | 0.335 E-score |

| Sequence | binding signal |
| --- | --- |
| CCGAAAGG | -0.103 E-score |
| ATCGAACC | 0.0073 E-score |
| CTAATTGC | 0.163 E-score |
| GTGTCGTA | 0.0443 E-score |
| TATGGTAA | 0.184 E-score |
| GAGACGTA | -0.153 E-score |
| CCTTGGCC | -0.25 E-score |
| TAAGGGTA | 0.126 E-score |
| ACAATTAG | 0.197 E-score |
| GACTGACA | -0.149 E-score |
| AGACTGAA | 0.00792 E-score |
| CGCGGCCC | -0.439 E-score |
| AACGCAAG | -0.0204 E-score |
| GTCCCGCA | -0.222 E-score |
| ATTCACAG | 0.107 E-score |
| CTAAGAGC | -0.156 E-score |
| AGACGCTG | -0.178 E-score |
| GTTCCCTA | -0.125 E-score |
| AGTGGTGC | -0.189 E-score |
| CGGTATCA | 0.137 E-score |
| CCGCCGCC | -0.275 E-score |
| AGTTTTCG | 0.0225 E-score |
